Data from PubChem BioAssay AID1508624 (National Center for Advancing Translational Sciences (NCATS), 2021).
Screen size: about 48,000 compounds; about 120 (0.25%) were called active. Inconclusive results (about 4%) are left out. Calls come from the whole dose curve; as a rule, active = well fitted activation curve with a large enough effect; inconclusive = small, poorly fitted or top-dose-only effect, or another doubt; inactive = no such curve, though single readings can be large or run the other way. The list shows a part of the results.

Experiment: Primary qHTS for Identification of Small Molecule Activators of Huntingtin-Antisense Promoter Activity; note: nearly all actives have a fitted effect of over 55% in size
Conditions: HEK293 HTT-AS promoter firefly luciferase reporter, 24 h; series mostly up to 57.5 µM; activity change, positive = activation: at the top concentration
In short: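 Luminescence was read after Dual-Glo reagent and a 10 min room-temperature incubation. Values were normalized to vehicle (0% activity) and zero RLU (-100% activity). Reporter HEK293 cells had been exposed to compounds (up to 57.5 uM final) for 24 h.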

Activity change, positive = activation, inactive:
O=C(Nc1cccc(Cl)c1)C1CCN(c2nc3ccccc3nc2C(F)(F)F)CC1 3.52%
CCc1cccc(NC(=O)c2cc(-c3ccccc3)n[nH]2)c1 14.1%
CCCN(CCC)C(=O)c1c[nH]c2ccc(S(=O)(=O)N(C)c3ccc(OCC)cc3)cc2c1=O -13.6%
COc1ccc(CCNC(=O)c2ccc3c(Cl)c4c(nc3c2)CCCC4)cc1OC -54.9%
COCCCNC(=O)C1CCCN(c2ncnc3onc(C)c23)C1 (stereo not given) -23.1%
Cc1ccc2oc(C(=O)Nc3nc(-c4ccc(F)cc4)ns3)c(C)c2c1 0.793%
CCc1ccc(C(=O)c2cn(CC(=O)Nc3ccc4c(c3)OCCO4)c3ccc(CC)cc3c2=O)cc1 -10.7%
Cc1ccccc1OCC(=O)Nc1ccc(C(=O)OCc2cc(=O)n3c(C)csc3n2)cc1 -11.2%
COc1cccc(NC(=O)CSC2=Nc3ccccc3C3=NC(CC(=O)NCc4cccs4)C(=O)N23)c1 (stereo not given) 8.32%
COc1ccc(C2c3c(oc4cc(C)cc(C)c4c3=O)C(=O)N2Cc2ccco2)cc1OC (stereo not given) -4.47%
COc1ccc(CNC(=O)CSCc2cnn(-c3ccccc3)c2-n2cccc2)cc1OC -45.8%
Cc1cccc(N2CCN(C(=O)c3cc4c(=O)[nH]c5ccc(C)cc5c4s3)CC2C)c1 (stereo not given) -68.2%
COc1ccc(Cn2c(CNC(=O)Cc3cccc([N+](=O)[O-])c3)nc3cccnc32)cc1 -11.6%
CC(=O)N1CCN(c2nc3c(F)cc(F)cc3s2)CC1 23.1%
COc1ccc(C(C(=O)Nc2ccc(C(C)C)cc2)N(C)C(=O)Cc2cccs2)cc1 (stereo not given) -14.2%
Cc1ccccc1Nc1nnc(-c2ccc(C)c(S(=O)(=O)N3CCN(C)CC3)c2)c2ccccc12 9.94% [at 11.5 µM, percent change from vehicle, -100% = no light]
COc1ccc(S(=O)(=O)NC(C)C)cc1-n1cnnn1 3.87%
O=C(Nc1ccc(OC(F)(F)F)cc1)C1CCCN(S(=O)(=O)c2ccc(Br)s2)C1 (stereo not given) -17.4%
Cc1ccc(NC(=O)Cn2c(SCc3cccc(F)c3)nc3ccncc32)c(C)c1 -12.5%
CC(C)(C)c1ccc(C(=O)Nc2nc3nc(-c4ccccc4)cc(=O)n3[nH]2)cc1 -16.4%
C#CC(C)(CC)NC(=O)Cn1nnc(-c2ccc(OCc3ccccc3Cl)cc2)n1 (stereo not given) -28.1%
COc1ccc(Br)cc1CNC(=O)CN1C(=O)CCCc2ccccc21 -11.7%
COc1cccc(NC(c2nnc(-c3ccccc3)o2)c2ccc(F)cc2Cl)c1 (stereo not given) -27.4%
COc1ccc(C(=O)NCC(c2cccnc2)N2CCN(c3ccccc3OC)CC2)cc1 (stereo not given) -53%
Cc1coc2c1c(C)cc1oc(=O)c(CC(=O)NCCc3ccc(Cl)cc3)c(C)c12 -3.33%
